The values that follow come from ChEMBL document CHEMBL1157539, “Thousands of chemical starting points for antimalarial lead identification” (Nature, 2010).

Where “and” joins values, the source holds several entries; their conditions need not be identical. Equal values may be shown once. Whole data set: some 13,000 compounds, median “IFI” near 4, cut for the highest 2% near 17. This is one part of the list.

The assay can be described thus: GSK_TCMDC: Inhibition Frequency Index (IFI). The number of non-kinase HTS assays where a compound showed > 50 % inhibition, expressed as a percentage of the number of such assays in which the compound was tested (-0 is zero). It counts as functional.
As to `S=C(NCCCCCN1CCC(c2c[nH]c3ccccc23)CC1)Nc1cccc(I)c1`, the IFI came out at 7.69%.
The figure for `O=C(/C=C/c1ccc(Cl)c(Cl)c1)NCCCCCN1CCC(c2n[nH]c(-c3ccccc3)c2Br)CC1` is 12.9%; for `COc1ccc2nccc([C@@H](O)CN3CCC(NCc4ccc5sc(=O)[nH]c5c4)CC3)c2c1` it is 2.22%.
The figure for `CN(C)CCNC(=O)c1csc(Nc2ccc(Cl)c(Cl)c2)n1` is 0.71%.
With `CCC(C)(C)c1ccc(Oc2ccc(NC(=O)Nc3ccc(Cl)c(Cl)c3)cc2)cc1` the figure was 4.9%; with `COc1ccc(-c2c3c(=O)n(C)c(=O)n(C)c3c3nnc4ccccc4n23)cc1`, 1.64%.
Regarding `O=c1cc(NCCCCNCc2cccc(Br)c2)[nH]c2ccccc12`, the IFI was 7.46%.
With `Cc1ccc(NC(=O)c2cc(Br)cc(N3CCCN(C)CC3)c2)cc1F` the figure was 6.45%.
Take `Fc1ccc2[nH]c(-c3ccc(-c4ccc(CNCc5ccccc5)cc4)cc3)nc2c1`: the IFI came out at 13.1%.
Regarding `CC(C)C(=O)ONC1=NC(C)(C)N(OCCCOc2cc(Cl)c(Cl)cc2Cl)C(NOC(=O)C(C)C)=N1`, the IFI came out at 3.52%.
`CN1CCCN(Cc2cccc(-c3ccc(NC(=O)c4ccc(Cl)cc4)cc3)c2)CC1` yielded an IFI of 2.91%.
On to `c1cc(CN2CCN(c3ccncc3)CC2)cc(-c2ccc(-c3nc4ccccc4[nH]3)s2)c1`, for which the IFI was found to be 9.52%.
Compound `CCc1n[nH]c(C(=O)Nc2cccc(N3CCCC3)c2)c1C` had an IFI of 8.7%.
With `Cc1ccc2nc(C)cc(N/N=C/c3ccc([N+](=O)[O-])o3)c2c1` the figure was 5.97%; with `C[C@H]1CN(Cc2ccc(-c3cccc(CNC(=O)c4cccc(C(=O)c5ccc(Cl)c(Cl)c5)c4)c3)s2)CCN1`, 16.2%; with `COc1c(C2CCN(CCCCNC(=O)c3ccc(C)c(-c4ccc(C(F)(F)F)cc4)c3)CC2)ccc2c1CCCC2`, 9.73%.
The figure for `COc1ccc2[nH]ccc(=NN=Cc3ccncc3)c2c1` is 0.72%; for `Cc1csc(-c2nc(NCCc3c(C)noc3C)ncc2-c2ccsc2)n1` it is 4.71%.
With `COc1ccc(-c2cccc(NC(=O)c3ccc(F)cc3)c2)cc1CN1CCCN(C)CC1` the figure was 10.7%; with `C=CCOC(=O)N1CCC(CNCc2cccc(-c3cccc(-c4nc5cc(F)ccc5[nH]4)c3)c2)C1` (stereo not drawn), 4.85%.
With `Nc1nc(O)c2cc(CNc3ccc(C(=O)N[C@@H](CCC(=O)O)C(=O)O)cc3)ccc2n1`, the IFI was -0%.
In turn, `CN1CCC(N(Cc2ccc(-c3cnc(NCc4ccccc4)nc3)cc2)S(=O)(=O)c2ccccc2)CC1` registered an IFI of 15.5%.
`Cc1cc(C2CCN(CCCCNC(=O)c3ccc(-c4ccc(C(F)(F)F)cc4)cc3)CC2)c(C)cc1OCCOC1CCCCO1` (stereo not drawn) had an IFI of 4.63%.
With `CCOc1c(C)cc(C(F)(F)F)cc1CNCCCNc1cc(=O)c2ccccc2[nH]1` the figure was 3.5%.
The figure for `COc1ccc2nc(N3CCNCC3)nc(NCCCc3ccccc3)c2c1` is 3.01%; for `Cc1ccc(NC(=O)c2ccc(CN3CCCN(CC4CCCCC4)CC3)cc2)cc1F` it is 10.3%; for `O=C(Nc1ccc2ccccc2c1)N1CCC(NCc2cccc([N+](=O)[O-])c2)CC1` it is 2.17%.
With `O=C(/C=C/c1ccc(Cl)c(Cl)c1)NCCCCCN1CCC(CCNC(=O)/C=C/c2ccccc2F)CC1` the figure was 6.25%; with `CCCCCN1CCCC1CNS(=O)(=O)c1cccc(C(=O)Nc2cccc(C(F)(F)F)c2)c1` (stereo not drawn), 3.61%.
For the compound `Cc1ccccc1C1CCN(c2ccc(C(=O)Nc3ccc(F)cc3)cn2)CC1`, the IFI stood at 8.33%.
As for `COc1cc(C(F)(F)F)nc2c(CNCCCNc3cc(=O)c4ccccc4[nH]3)scc12`, the IFI is 5.15%.
The figure for `C=C1N(C)c2cc([N+](=O)[O-])c(N)cc2C1(C)C` is 9.2%; for `O=C(CCCCCNC(=O)c1ccc(O)c(-c2cccc(C(F)(F)F)c2)c1)NCCN1CCCCC1` it is 0.74%.
The figure for `COc1cc(C)c(C(O)CNC(C)CCc2ccccc2)cc1C` (stereo not drawn) is 2.99%; for `CC(C)CCOc1ccc(NC(=O)c2cccs2)cc1` it is 6.78%; for `CC(C)COc1ccc(Cl)cc1Cc1ccc(-c2nc3cc(N4CCN(C)CC4)ccc3[nH]2)o1` it is 17.2%.
For `Cc1cccc2nc(-c3cccc(-c4cccc(NC(=O)c5ccc(C(N)=O)cc5)c4)c3)[nH]c12`, the IFI stood at 5.26%.
The figure for `CCCCOc1ccc(N2C(N)=NC(N)=NC2(C)C)cc1` is 2.19%; for `CC(C)=C(C(=O)OCc1ccccc1)N1C(=O)[C@@H](NC(c2ccccc2)(c2ccccc2)c2ccccc2)[C@H]1[S+]([O-])CC(=O)OC(C)(C)C` (stereo partly drawn) it is 3.03%; for `CSC1=NC(=Nc2c(C)cccc2C)C2(CCCCC2)N1c1ccccc1Cl` it is 3.28%.
With `CC(C)n1nc(C(=O)N2CCN(c3ccccc3)CC2)c2ccccc2c1=O` the figure was 2.94%; with `O=C(Nc1ccc(-c2ccc(-c3nc4ccccc4[nH]3)s2)cc1)c1ccncc1`, 0.94%.
With `CC(C)COc1ccc(Cl)cc1Cc1ccc(-c2nc3cnc4ccccc4c3[nH]2)o1` the figure was 7.23%; with `Cc1cccc(C)c1N1CCN(C2CCC(NC(=O)/C=C/c3ccccc3)CC2)CC1` (stereo not drawn), 4.55%.
In the case of `OC(CNCc1ccccc1OCc1ccccc1)c1cccc(Cl)c1` (stereo not drawn), the IFI turned out to be 5.51%.
With `O=C(NCC1CCN(Cc2cccc(C(F)(F)F)c2)C1)c1cc(-c2cccc(C(F)(F)F)c2)cs1` (stereo not drawn) the figure was 9.43%; with `CC(C)(C)C1CCC(C(=O)c2ccc3ccccc3c2O)CC1` (stereo not drawn), 0%; with `Oc1c(C(Nc2nc3ccccc3s2)c2ccccc2)ccc2cccnc12` (stereo not drawn), 5.19%.
With `O=[N+]([O-])c1cccc(CNCC2CCN(Cc3ccc(C(F)(F)F)cc3)CC2)c1` the figure was 3.6%; with `COc1ccc2sc(CNCCCNc3cc(=O)c4ccccc4[nH]3)c(Cl)c2c1`, 7.81%.
The figure for `O=C(C=Cc1ccc(Cl)c(Cl)c1)NCCCCCN1CCC(CCCNC(=O)/C=C/c2ccccc2)CC1` is 8.27%.
For the compound `COc1ccc2ncc(F)c(CCN3C[C@H](CNCc4cc(F)c5c(c4)NC(=O)CO5)[C@H](O)C3)c2n1`, the IFI was 1.9%.
With `CCOC(=O)c1ccc(-c2c(C(F)(F)F)noc2-c2cc(CC)c(OC)cc2O)o1` the figure was 4.41%; with `O=C(CSc1nc2ccccc2c(=O)n1C1CC1)Nc1cc(C(F)(F)F)ccc1Cl`, 0.71%; with `CCOc1cc(-c2nnc3[nH]c(=O)n(C)c(=O)c3n2)ccc1OC(C)C`, 7.69%.
With `Cc1c(S(=O)(=O)Nc2ccc3nccc(N4CC(C)NC(C)C4)c3c2)sc2ccc(Cl)cc12` (stereo not drawn) the figure was 1.48%.
With `CS(=O)(=O)c1ccccc1CNC(=O)c1cccc(-c2ccc(-c3nc4cc(C(F)(F)F)ccc4[nH]3)cc2)c1` the figure was 9.43%.
Compound `COc1cc2c(cc1OCCN1CCC(N3CCCC3)CC1)N(C(=O)/C=C/c1ccccc1Cl)CC2` yielded an IFI of 7.75%.
With `COc1ccc(CN2CCCC(Nc3ccc(F)c(F)c3)C2)c(O)c1` (stereo not drawn) the figure was 5.41%; with `COc1ccc(CCN2CCC(NCc3cccc(N(C)C)c3)CC2)cc1`, -0%.
With `COc1cccc2c(NN=Cc3cccc(F)c3)ccnc12` the figure was 2.99%; with `COc1ccc(-c2ccccc2OCCCNc2nc(NCCc3ccc(O)cc3)nc(N3CCNCC3)n2)cc1`, 13.8%.
Compound `O=C(Nc1ccc(CN2CCOCC2)cc1)c1ccc(-c2ccc(Br)cc2)o1` had an IFI of 4.17%.
With `OC(c1cc(C(F)(F)F)nc2c(F)cccc12)C1CCCCN1` (stereo not drawn) the figure was 0%; with `Cc1cc(NCCc2cccc(F)c2)nc(NC(=N)Nc2cccc(C(F)(F)F)c2)n1`, 10.5%.
Compound `CN1CCN(c2ccc(Nc3ncc([N+](=O)[O-])c(Nc4ccccc4O)n3)cc2)CC1` registered an IFI of 6.99%.
`CCCCNCc1ccc(-c2nc(CN(CCCn3ccnc3)C(=O)C3COc4ccccc4O3)cs2)cc1` (stereo not drawn) gave an IFI of 4.93%.
In the case of `S=C(NCCCCCN1CCC(c2c[nH]c3ccccc23)CC1)Nc1ccc(Cl)c(Cl)c1`, the IFI amounted to 11%.
With `CCCNCc1ccc(-c2ccc(CN(CCOC)C(=O)c3cccc(C#N)c3)cc2)nc1` the figure was 0.7%; with `COc1cc2c(cc1OC)CN(c1cc(N)c3cc(OC)c(OC)cc3n1)CC2`, -0%.
With `Nc1c2c(nc3ccc(Oc4ccc(Cl)cc4)cc13)CCCC2` the figure was 7.21%; with `CN(C)CCNc1nccc(N2CCc3ncnc(Nc4ccc(OCc5cccc(F)c5)c(Cl)c4)c3C2)n1`, 15.7%.
With `COc1cc2nc(N3CCC(CNC(=O)c4cccc5cc[nH]c45)CC3)nc(N)c2cc1OC` the figure was 3.51%; with `CC(=O)Nc1nnc(SCc2c(C)cc(C(C)(C)C)cc2C)s1`, -0%.
`NC1CCCN(Cc2ccc(-c3cccc(-c4nc5cc(F)ccc5[nH]4)c3)cc2)C1` (stereo not drawn) returned an IFI of 5.56%.
The figure for `COC(=O)CCCOc1cc(Cc2cnc(N)nc2N)cc(OC)c1OC` is 0.73%; for `CC(C)Cn1ccc2c3c(N)nc(N)nc3ccc21` it is 2.5%; for `CCOC(=O)c1cc(C(=O)OC)c2ccccn12` it is 1.48%.
Regarding `CCC(ON1C(N)=NC(N)=NC1(C)C)c1ccccc1` (stereo not drawn), the IFI is 2.17%.
Compound `[O-][s+]1nc(NCCCN(Cc2cccs2)c2ccccn2)c(NCc2ccccc2)n1` (stereo not drawn) had an IFI of 4.83%.
With `CCCOc1ccc2ccccc2c1CNCCCCCCNCc1c(OCCC)ccc2ccccc12` the figure was 17.6%.
The figure for `Fc1ccc(-c2csc3ncnc(Cl)c23)cc1` is 2.16%; for `CCc1nc(N)nc(N)c1-c1ccc(Cl)cc1` it is 1.59% and 3.57%; for `CCOC(=O)c1ccc(NC(=O)Nc2ccc(-c3cccc(-c4nc5cc(F)ccc5[nH]4)c3)cc2)cc1` it is 4.95%.
The compound `O=C(c1ccc(Cl)cc1)N1CCOC(CCN2CCC(c3ccccc3)CC2)(c2ccc(Cl)c(Cl)c2)C1` (stereo not drawn) registered an IFI of 8.84%.
With `CCOP(=O)(OCC)c1ccc(OC)c(-c2ccc[nH]2)c1` the figure was 2.16%.
With `COc1ccc(CCNc2nc(NCc3ccccc3)c3cc(OC)c(OC)cc3n2)cc1OC` the figure was 5.84%.
The figure for `CCOC(=O)N1NC(=O)N(c2ccccc2)C1(c1ccccc1)c1ccccc1` is 0%.
`CN(C)CCNC(=O)[C@H](CC1CCCCC1)NC(=O)c1ccc(O)c(-c2ccc(Cl)c(Cl)c2)c1` registered an IFI of 8.57%.
With `CCNc1cc(C(=O)N[C@@H](Cc2ccccc2)[C@H](O)CNCc2ccc3c(c2)OCCO3)cc(N2CCCCS2(=O)=O)c1` the figure was 3.57%.
With `Fc1cccc(COc2ccc(Nc3ncnc4ccc(C#C[C@H]5CCCN5)cc34)cc2Cl)c1` the figure was 5.07%; with `c1cncc(CCNCc2ccc(-c3ccc(-c4nc5ccccc5[nH]4)s3)cc2)c1`, 6.9%; with `O=C(Nc1cccc(CN2CCCN(Cc3ccc4c(c3)OCO4)CC2)c1)c1ccc(-c2ccccc2)cc1`, 10.6%.
